# The supplement of paper PMC8728848
# The list shows a part of the results.
# B1: ArathEULS3 (Arabidopsis thaliana), Q945P1 (protein)
# chain: MEHHHQHHRHHQRDDGEDDRQSFGVPPPHVDAPPQPHGLYQSQPHFDPYAPTPQAPAPYRSETQFEPHAPPPYRSEPYFETPAPPPSFGHVSHVGHQSPNESYPPEHHRYGGYQQPSNSLLESHGDHSGVTHVAHHSSNQPQSSSGVYHKPDENRLPDNLAGLAGRATVKVYSKAEPNYNLTIRDGKVILAPADPSDEAQHWYKDEKYSTKVKDADGHPCFALVNKATGEAMKHSVGATHPVHLIRYVPDKLDESVLWTESKDFGDGYRTIRMVNNTRLNVDAYHGDSKSGGVRDGTTIVLWDWNKGDNQLWKIFPFILEQKLISEEDLNSAVDHHHHHH
# Assays:
# Test in all cases: glycan array binding signal (z-score within array); higher = stronger binding
# Details in all cases: glycan notation: IUPAC condensed, linker removed
# [1] = molecular target: Fuc(a1-2)Gal(b1-4)GlcNAc(b1-3)Gal(b1-4)GlcNAc(b1-3)Gal(b1-4)GlcNAc
# In short: (§1)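 Negative Z-scores can be read as non-binding. The Z-score is calculated within each array and then averaged across arrays of one protein sequence at different concentrations or buffers and across linkers. Arrays, 3228 in all, were curated from the Consortium for Functional Glycomics database and kept only where the protein sequence was available.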
# [2] = molecular target: Fuc(a1-2)Gal(b1-4)GlcNAc(b1-3)GalNAc
# In short: as §1
# [3] = molecular target: Fuc(a1-2)Gal(b1-4)GlcNAc(b1-3)[Fuc(a1-2)Gal(b1-4)GlcNAc(b1-6)]GalNAc
# In short: as §1
# [4] = molecular target: Fuc(a1-2)Gal(b1-4)GlcNAc(b1-6)GalNAc
# In short: as §1
# [5] = molecular target: Fuc(a1-2)Gal(b1-4)GlcNAc6S
# In short: as §1
# [6] = molecular target: Fuc(a1-2)Gal(b1-4)[Fuc(a1-3)]GlcNAc
# In short: as §1
# [7] = molecular target: Fuc(a1-2)Gal(b1-4)[Fuc(a1-3)]GlcNAc(b1-2)Man(a1-3)[Fuc(a1-2)Gal(b1-4)[Fuc(a1-3)]GlcNAc(b1-2)Man(a1-6)]Man(b1-4)GlcNAc(b1-4)GlcNAc
# In short: as §1
# [8] = molecular target: Fuc(a1-2)Gal(b1-4)[Fuc(a1-3)]GlcNAc(b1-2)Man(a1-6)[Fuc(a1-2)Gal(b1-4)[Fuc(a1-3)]GlcNAc(b1-2)Man(a1-3)]Man(b1-4)GlcNAc(b1-4)[Fuc(a1-6)]GlcNAc
# In short: as §1
# [9] = molecular target: Fuc(a1-2)Gal(b1-4)[Fuc(a1-3)]GlcNAc(b1-2)[Fuc(a1-2)Gal(b1-4)[Fuc(a1-3)]GlcNAc(b1-4)]Man(a1-3)[Fuc(a1-2)Gal(b1-4)[Fuc(a1-3)]GlcNAc(b1-2)Man(a1-6)]Man(b1-4)GlcNAc(b1-4)GlcNAc
# In short: as §1
# [10] = molecular target: Fuc(a1-2)Gal(b1-4)[Fuc(a1-3)]GlcNAc(b1-3)Gal(b1-4)[Fuc(a1-3)]GlcNAc
# In short: as §1
# [11] = molecular target: Fuc(a1-2)Gal(b1-4)[Fuc(a1-3)]GlcNAc(b1-3)Gal(b1-4)[Fuc(a1-3)]GlcNAc(b1-3)Gal(b1-4)[Fuc(a1-3)]GlcNAc
# In short: as §1
# [12] = molecular target: Fuc(a1-2)Gal(b1-4)[Fuc(a1-3)]GlcNAc(b1-3)GalNAc
# In short: as §1
# [13] = molecular target: Fuc(a1-2)Gal(b1-4)[Fuc(a1-3)]GlcNAc(b1-3)[Neu5Ac(a2-6)Gal(b1-4)GlcNAc(b1-6)]Gal(b1-4)Glc
# In short: as §1
# [14] = molecular target: Fuc(a1-2)Gal6S(b1-3)GlcNAc
# In short: as §1
# [15] = molecular target: Fuc(a1-2)Gal6S(b1-3)GlcNAc6S
# In short: as §1
# Fuc(a1-2)Gal6S(b1-4)Glc = molecular target: Fuc(a1-2)Gal6S(b1-4)Glc
# In short: as §1
# [16] = molecular target: Fuc(a1-2)Gal6S(b1-4)Glc6S
# In short: as §1
# [17] = molecular target: Fuc(a1-2)Gal6S(b1-4)GlcNAc
# In short: as §1
# Fuc(a1-2)[Gal(a1-3)]Gal = molecular target: Fuc(a1-2)[Gal(a1-3)]Gal
# In short: as §1
# [18] = molecular target: Fuc(a1-2)[Gal(a1-3)]Gal(b1-3)GalNAc
# In short: as §1
# [19] = molecular target: Fuc(a1-2)[Gal(a1-3)]Gal(b1-3)GlcNAc
# In short: as §1
# [20] = molecular target: Fuc(a1-2)[Gal(a1-3)]Gal(b1-3)GlcNAc(b1-2)Man(a1-3)[Fuc(a1-2)[Gal(a1-3)]Gal(b1-3)GlcNAc(b1-2)Man(a1-6)]Man(b1-4)GlcNAc(b1-4)GlcNAc
# In short: as §1
# [21] = molecular target: Fuc(a1-2)[Gal(a1-3)]Gal(b1-3)GlcNAc(b1-2)Man(a1-3)[Fuc(a1-2)[Gal(a1-3)]Gal(b1-3)GlcNAc(b1-2)Man(a1-6)]Man(b1-4)GlcNAc(b1-4)[Fuc(a1-6)]GlcNAc
# In short: as §1
# [22] = molecular target: Fuc(a1-2)[Gal(a1-3)]Gal(b1-3)GlcNAc(b1-3)GalNAc
# In short: as §1
# [23] = molecular target: Fuc(a1-2)[Gal(a1-3)]Gal(b1-4)Glc
# In short: as §1
# [24] = molecular target: Fuc(a1-2)[Gal(a1-3)]Gal(b1-4)GlcNAc
# In short: as §1
# [25] = molecular target: Fuc(a1-2)[Gal(a1-3)]Gal(b1-4)GlcNAc(b1-2)Man(a1-3)[Fuc(a1-2)[Gal(a1-3)]Gal(b1-4)GlcNAc(b1-2)Man(a1-6)]Man(b1-4)GlcNAc(b1-4)GlcNAc
# In short: as §1
# [26] = molecular target: Fuc(a1-2)[Gal(a1-3)]Gal(b1-4)GlcNAc(b1-2)Man(a1-3)[Fuc(a1-2)[Gal(a1-3)]Gal(b1-4)GlcNAc(b1-2)Man(a1-6)]Man(b1-4)GlcNAc(b1-4)[Fuc(a1-6)]GlcNAc
# In short: as §1
# [27] = molecular target: Fuc(a1-2)[Gal(a1-3)]Gal(b1-4)GlcNAc(b1-3)GalNAc
# In short: as §1
# [28] = molecular target: Fuc(a1-2)[Gal(a1-3)]Gal(b1-4)GlcNAc(b1-6)GalNAc
# In short: as §1
# [29] = molecular target: Fuc(a1-2)[Gal(a1-3)]Gal(b1-4)[Fuc(a1-3)]Glc
# In short: as §1
# [30] = molecular target: Fuc(a1-2)[Gal(a1-3)]Gal(b1-4)[Fuc(a1-3)]GlcNAc
# In short: as §1
# [31] = molecular target: Fuc(a1-2)[Gal(a1-3)]Gal(b1-4)[Fuc(a1-3)]GlcNAc(b1-3)GalNAc
# In short: as §1
# [32] = molecular target: Fuc(a1-2)[Gal(a1-4)]Gal(b1-4)GlcNAc
# In short: as §1
# [33] = molecular target: Fuc(a1-2)[GalNAc(a1-3)]Gal
# In short: as §1
# [34] = molecular target: Fuc(a1-2)[GalNAc(a1-3)]Gal(b1-3)GalNAc(a1-3)[Fuc(a1-2)]Gal(b1-4)GlcNAc
# In short: as §1
# [35] = molecular target: Fuc(a1-2)[GalNAc(a1-3)]Gal(b1-3)GlcNAc
# In short: as §1
# [36] = molecular target: Fuc(a1-2)[GalNAc(a1-3)]Gal(b1-3)GlcNAc(b1-2)Man(a1-3)[Fuc(a1-2)[GalNAc(a1-3)]Gal(b1-3)GlcNAc(b1-2)Man(a1-6)]Man(b1-4)GlcNAc(b1-4)GlcNAc
# In short: as §1
# [37] = molecular target: Fuc(a1-2)[GalNAc(a1-3)]Gal(b1-3)GlcNAc(b1-2)Man(a1-3)[Fuc(a1-2)[GalNAc(a1-3)]Gal(b1-3)GlcNAc(b1-2)Man(a1-6)]Man(b1-4)GlcNAc(b1-4)[Fuc(a1-6)]GlcNAc
# In short: as §1
# [38] = molecular target: Fuc(a1-2)[GalNAc(a1-3)]Gal(b1-3)GlcNAc(b1-3)GalNAc
# In short: as §1
# [39] = molecular target: Fuc(a1-2)[GalNAc(a1-3)]Gal(b1-3)GlcNAc(b1-6)GalNAc
# In short: as §1
# [40] = molecular target: Fuc(a1-2)[GalNAc(a1-3)]Gal(b1-4)Glc
# In short: as §1
# [41] = molecular target: Fuc(a1-2)[GalNAc(a1-3)]Gal(b1-4)GlcNAc
# In short: as §1
# [42] = molecular target: Fuc(a1-2)[GalNAc(a1-3)]Gal(b1-4)GlcNAc(b1-2)Man(a1-3)[Fuc(a1-2)[GalNAc(a1-3)]Gal(b1-4)GlcNAc(b1-2)Man(a1-6)]Man(b1-4)GlcNAc(b1-4)GlcNAc
# In short: as §1
# [43] = molecular target: Fuc(a1-2)[GalNAc(a1-3)]Gal(b1-4)GlcNAc(b1-2)Man(a1-3)[Fuc(a1-2)[GalNAc(a1-3)]Gal(b1-4)GlcNAc(b1-2)Man(a1-6)]Man(b1-4)GlcNAc(b1-4)[Fuc(a1-6)]GlcNAc
# In short: as §1
binder,measurement,setting,value
B1,glycan array binding signal (z-score),[1],-0.257
same,glycan array binding signal (z-score),[2],-0.325
same,glycan array binding signal (z-score),[3],-0.164
same,glycan array binding signal (z-score),[4],-0.126
same,glycan array binding signal (z-score),[5],-0.196
same,glycan array binding signal (z-score),[6],0.658
same,glycan array binding signal (z-score),[7],1.64
same,glycan array binding signal (z-score),[8],1.72
same,glycan array binding signal (z-score),[9],-0.214
same,glycan array binding signal (z-score),[10],-0.224
same,glycan array binding signal (z-score),[11],-0.339
same,glycan array binding signal (z-score),[12],11.8
same,glycan array binding signal (z-score),[13],-0.099
same,glycan array binding signal (z-score),[14],-0.322
same,glycan array binding signal (z-score),[15],0.585
same,glycan array binding signal (z-score),Fuc(a1-2)Gal6S(b1-4)Glc,0.231
same,glycan array binding signal (z-score),[16],0.153
same,glycan array binding signal (z-score),[17],0.038
same,glycan array binding signal (z-score),Fuc(a1-2)[Gal(a1-3)]Gal,-0.303
same,glycan array binding signal (z-score),[18],0.515
same,glycan array binding signal (z-score),[19],-0.064
same,glycan array binding signal (z-score),[20],-0.243
same,glycan array binding signal (z-score),[21],-0.019
same,glycan array binding signal (z-score),[22],-0.241
same,glycan array binding signal (z-score),[23],0.023
same,glycan array binding signal (z-score),[24],-0.145
same,glycan array binding signal (z-score),[25],-0.125
same,glycan array binding signal (z-score),[26],-0.169
same,glycan array binding signal (z-score),[27],0.002
same,glycan array binding signal (z-score),[28],-0.175
same,glycan array binding signal (z-score),[29],-0.245
same,glycan array binding signal (z-score),[30],0.315
same,glycan array binding signal (z-score),[31],0.112
same,glycan array binding signal (z-score),[32],-0.393
same,glycan array binding signal (z-score),[33],-0.24
same,glycan array binding signal (z-score),[34],-0.309
same,glycan array binding signal (z-score),[35],0.163
same,glycan array binding signal (z-score),[36],-0.234
same,glycan array binding signal (z-score),[37],0.059
same,glycan array binding signal (z-score),[38],0.052
same,glycan array binding signal (z-score),[39],0.192
same,glycan array binding signal (z-score),[40],-0.163
same,glycan array binding signal (z-score),[41],-0.305
same,glycan array binding signal (z-score),[42],0.76
same,glycan array binding signal (z-score),[43],-0.297
